{"source": "PubChem BioAssay AID686978", "about": "(National Center for Advancing Translational Sciences (NCATS), 2013)", "note": "Screen size: about 420,000 compounds; about 64,000 (15%) were called active. Inconclusive means that the source gave no clear call. Such entries were picked first, then a sample of the others. Calls follow the shape of the dose curve; as a rule, active = well fitted inhibition curve with a large enough effect; inconclusive = small, poorly fitted or top-dose-only effect; inactive = flat fitted curve, though single readings scatter. Potencies of inconclusive entries are left out as doubtful fits."}
{"test": "qHTS for Inhibitors of human tyrosyl-DNA phosphodiesterase 1 (TDP1): qHTS in cells in absence of CPT; also: nearly all actives have a fitted effect of over 55% in size; also: potency is read from the fitted curve at half-maximal effect; tags tell the direction and shape of the fitted curve", "conditions": "DT40 Tdp1-/- hTDP1 cells, no CPT, ATP luminescence, 48 h; series mostly up to 46.2 µM", "procedure,_shortened": "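Camptothecin absent (DMSO only). Human TDP1-complemented DT40 knockout cells, 400 cells/well, 37 °C for minimum 48 hr; ATP measured via CellTiter-Glo, 30 min dark incubation, luminescence.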"}
{"molecule": "COc1cccc(C(=O)N(C)C(C)c2nc3ccccc3s2)c1", "note": "(stereo unspecified)", "Potency": "inconclusive [inhibitor, single point]"}
{"molecule": "O=C(Nc1cccc2ccccc12)c1ccc2sc([C@@H]3O[C@H](CO)[C@@H](O)[C@H]3O)nc2c1", "Potency": "inconclusive [inhibitor, partial curve]"}
{"molecule": "O=C(COC(=O)c1ccc([N+](=O)[O-])cc1)NC1CCCC1", "Potency": "inactive"}
{"molecule": "O=C(CN1CCOCC1)N1c2ccccc2Sc2ccccc21", "Potency": "inactive"}
{"molecule": "Oc1ccc(Cn2ccnc2)c2cccnc12", "Potency": "inconclusive [inhibitor, single point]"}
{"molecule": "Cc1ccc(NC(=O)[C@@H](NC(=O)c2cccc(S(=O)(=O)N3CCOCC3)c2)C(C)C)cc1C", "Potency": "active: 11.6 µM"}
{"molecule": "CCn1nc(CC(C)C)cc1C(=O)N1CCCC(Nc2ccc(OC)cc2)C1", "note": "(stereo unspecified)", "Potency": "inconclusive [inhibitor, single point]"}
{"molecule": "CCOc1ccc(-c2nc(CSCC(=O)N3CCN(C(=O)c4ccco4)CC3)c(C)o2)cc1", "Potency": "inconclusive [inhibitor, single point]"}
{"molecule": "COc1ccc(C(=O)NCCN2CCOCC2)cc1S(=O)(=O)Nc1ccc(C)cc1", "Potency": "inactive"}
{"molecule": "CC(C)CCN(C(=O)Nc1ccc(Cl)c(Cl)c1)C1CCN(C(C)C)CC1", "Potency": "active: 14.6 µM"}
{"molecule": "CC(C)Cc1nc(Nc2ccccc2C#N)c2nnn(Cc3ccccc3)c2n1", "Potency": "inconclusive [inhibitor, single point]"}
{"molecule": "O=C1c2ccccc2C(=O)N1CCCn1c(=O)oc2ccccc21", "Potency": "inactive"}
{"molecule": "COc1ccccc1Nc1nc(-c2ccccc2)nc2ccccc12", "Potency": "inconclusive [inhibitor, single point]"}
{"molecule": "Cc1csc(NC(=O)c2cc(C)on2)n1", "Potency": "inactive"}
{"molecule": "CN(C)CC(=O)N[C@@H]1C=C[C@@H](CC(=O)NCCN2CCCCC2)O[C@@H]1CO", "Potency": "inactive"}
{"molecule": "Cc1ccc(C(=O)NNC(=O)c2ccc(NC(=O)C(C)(C)C)cc2)cc1", "Potency": "inactive"}
{"molecule": "COc1ccc(N2c3ccccc3CN(Cc3ccccc3)[C@@H](C)[C@H]2Cc2cccnc2)cc1", "Potency": "active: 20.6 µM"}
{"molecule": "CCN(CCS(=O)(=O)c1ccc(Br)cc1)Cc1nc2ccccc2c(=O)[nH]1", "Potency": "inconclusive [inhibitor, single point]"}
{"molecule": "CCOc1ccc(NC(=O)c2sc3nc4c(c(-c5ccccc5)c3c2N)C(=O)CC(C)(C)C4)cc1", "Potency": "inactive"}
{"molecule": "COc1cccc(Nc2nc(C(N)Cc3ccc(Cl)cc3)cs2)n1", "note": "(stereo unspecified)", "Potency": "active: 6.51 µM"}
{"molecule": "CN1C=CC2=C(C#N)C(N)C(C#N)(C#N)C(c3ccccc3)C2C1", "note": "(stereo unspecified)", "Potency": "inconclusive [inhibitor, partial curve]"}
{"molecule": "CN(C(=O)/C=C/c1cnc2ccccc2c1)C1CCCCC1", "Potency": "inconclusive [inhibitor, partial curve]"}
{"molecule": "O=C(/C=C/c1ccc(NC(=O)c2ccccc2-c2ccccc2C(=O)O)cc1)c1ccccc1", "Potency": "inconclusive [inhibitor, single point]"}
{"molecule": "COc1cc(/C=N/O)cc(Br)c1OC", "Potency": "inactive"}
{"molecule": "Nc1nonc1C(=Nc1ccc(Br)cc1)NO", "Potency": "inconclusive [inhibitor, partial curve]"}
{"molecule": "O=C(NCCc1ccccc1)c1ccc2nc(N3CCCCC3)sc2c1", "Potency": "inconclusive [inhibitor, partial curve]"}
{"molecule": "COc1ccc(/C=N/NC(=O)c2cc(-c3ccc(C)cc3C)nc3ccccc23)cc1COC(C)=O", "Potency": "active: 1.46 µM"}
{"molecule": "N=c1ccn2c(n1)OCC1C2O[C@@H](O)[C@H]1O", "note": "(stereo partly specified)", "Potency": "active: 0.146 µM"}
{"molecule": "Cc1cccc(COCC(CC(C)C)N2CCN(C(=O)c3ccc(C(C)(C)C)cc3)CCC2=O)c1", "note": "(stereo unspecified)", "Potency": "active: 18.4 µM"}
{"molecule": "C/C(=N\\NC(=O)c1nc2ccccn2c1C)c1cc2ccccc2o1", "Potency": "inconclusive [inhibitor, partial curve]"}
{"molecule": "Cc1ccccc1NC(=O)c1cn(-c2ccccc2)nc1-c1ccccc1", "Potency": "inconclusive [inhibitor, single point]"}
{"molecule": "O=C(COc1ccc(NC(=O)c2ccccc2[N+](=O)[O-])cc1)c1ccc(F)cc1", "Potency": "inconclusive [inhibitor, single point]"}
{"molecule": "O=S(=O)(NCC(c1ccco1)N1CCOCC1)c1ccc(Br)cc1", "note": "(stereo unspecified)", "Potency": "inconclusive [inhibitor, single point]"}
{"molecule": "Clc1ccc(C2=Nc3cc(Cl)ccc3OC2)cc1", "Potency": "inconclusive [inhibitor, single point]"}
{"molecule": "O=C1N/C(=C\\c2ccc(O)cc2)C(O)=C1C=NCc1ccccc1", "Potency": "inconclusive [inhibitor, single point]"}
{"molecule": "O=c1[nH][nH]c2c1[C@@H](c1ccc(F)cc1)O[C@H](CCc1ccccc1)C2", "Potency": "inconclusive [inhibitor, partial curve]"}
{"molecule": "C/C(=N\\NC(=O)Nc1ccccc1)c1ccc2ccccc2c1", "Potency": "inconclusive [inhibitor, single point]"}
{"molecule": "Cc1cnc(CNc2ncnc3ccc(-c4ccccc4Cl)cc23)cn1", "Potency": "inconclusive [inhibitor, single point]"}
{"molecule": "Cc1ccc(C)c(N2C(=O)CC(Cc3ccc(Cl)cc3)C2=O)c1", "note": "(stereo unspecified)", "Potency": "inconclusive [inhibitor, single point]"}
{"molecule": "COc1ccc(-c2cn[nH]c2-c2ccc(OCc3ccccc3)cc2O)cc1", "Potency": "inconclusive [inhibitor, partial curve]"}
{"molecule": "CCCOc1ccc(/C(O)=C2/C(=O)C(=O)N(CCCOC)C2c2cccnc2)cc1", "note": "(stereo unspecified)", "Potency": "inactive"}
{"molecule": "Cc1ccc2oc(C(=O)N(Cc3ccc(N(C)C)cc3)CC3CCCO3)c(C)c2c1", "note": "(stereo unspecified)", "Potency": "active: 18.4 µM"}
{"molecule": "COC(=O)C1=C(C)N(Cc2ccccc2)C(=NCCc2c[nH]c3ccccc23)N[C@H]1c1cccc(F)c1", "Potency": "active: 2.59 µM"}
{"molecule": "CC1CC1C(=O)OCC(=O)NCc1ccccc1", "note": "(stereo unspecified)", "Potency": "inactive"}
{"molecule": "CN1CCC(N(C)C(=O)c2ccc(Cl)c(S(=O)(=O)N3CCc4ccccc43)c2)CC1", "Potency": "inconclusive [inhibitor, single point]"}
{"molecule": "CC(C)(C)C1CCC(=NNc2ccc(S(N)(=O)=O)cc2[N+](=O)[O-])CC1", "note": "(stereo unspecified)", "Potency": "active: 20.6 µM"}
{"molecule": "CCC(C)NC(=S)N1CCN(Cc2ccccc2)CC1", "note": "(stereo unspecified)", "Potency": "inactive"}
{"molecule": "Cc1[nH]n(-c2ccccc2)c(=O)c1C(c1ccccc1[N+](=O)[O-])C(C#N)C#N", "note": "(stereo unspecified)", "Potency": "inconclusive [inhibitor, partial curve, poor fit]"}
{"molecule": "CCOC(=O)c1c(NC(=O)CSc2cn(CCNC(=O)c3cccc(C(F)(F)F)c3)c3ccccc23)sc2c1CCC2", "Potency": "inactive"}
{"molecule": "CC(C)(C)Nc1c(C2CCNCC2)nc2c(OCc3ccccc3)cccn12", "Potency": "inconclusive [inhibitor, single point]"}
{"molecule": "CCOc1ccc(N(CC(=O)NCc2ccccc2)C(=O)CCC(=O)Nc2nccs2)cc1", "Potency": "inconclusive [inhibitor, partial curve]"}
{"molecule": "O=C(CCS(=O)(=O)c1ccc(Cl)cc1)Nc1nc(-c2ccncc2)cs1", "Potency": "active: 13 µM"}
{"molecule": "COc1ccc(C(=O)Nc2cc(S(=O)(=O)N3CCCCC3)ccc2C)cc1", "Potency": "inconclusive [inhibitor, single point]"}
{"molecule": "Cc1ccc(N2CC(C(=O)Nc3ccc(S(=O)(=O)N4CCOCC4)cc3)CC2=O)cc1Cl", "note": "(stereo unspecified)", "Potency": "inconclusive [inhibitor, single point]"}
{"molecule": "COC(=O)c1ccccc1-c1cc(C)cc2c1OC(CNC(=O)c1ccn(C)n1)C2", "note": "(stereo unspecified)", "Potency": "inconclusive [inhibitor, partial curve, poor fit]"}
{"molecule": "COc1ccc(NC(=O)CSCC(=O)N(C)Cc2ccc(Cl)c(Cl)c2)cc1", "Potency": "inconclusive [inhibitor, single point]"}
{"molecule": "Cc1cnc(NC(=O)c2cc3c(s2)CCCC3)s1", "Potency": "inactive"}
{"molecule": "Nc1nnc(Cc2cccc(Br)c2)s1", "Potency": "inactive"}
{"molecule": "Cc1ccc(CN2CCC2(C)C(=O)NC(C)C)cc1", "note": "(stereo unspecified)", "Potency": "inconclusive [inhibitor, single point]"}
{"molecule": "CC(C)N(C(=O)[C@H]1C[C@H](CC(=O)NCCCn2ccnc2)C(=O)N2CCc3c([nH]c4ccc(Cl)cc34)[C@]12C)C(C)C", "Potency": "active: 18.4 µM"}
{"molecule": "O=S(=O)(c1cc(Cl)ccc1Cl)N1CC2CCCN2c2ccc(C(F)(F)F)cc21", "note": "(stereo unspecified)", "Potency": "inconclusive [inhibitor, single point]"}
{"molecule": "CC(NC(=O)C1CCN(S(=O)(=O)c2ccc(F)cc2)CC1)c1ccccc1", "note": "(stereo unspecified)", "Potency": "inactive"}
{"molecule": "COc1cc2nc(N3CCCCC3)nc(NC(C)C)c2cc1OC", "Potency": "inconclusive [inhibitor, single point]"}
{"molecule": "CCN(CC)CCN1C(=O)C(=O)/C(=C(/O)c2ccc3c(c2)CC(C)O3)C1c1ccc(OC)cc1", "note": "(stereo unspecified)", "Potency": "inconclusive [inhibitor, single point]"}
{"molecule": "C[C@H]1COC[C@@H](C/C=C/c2ccccc2)N1c1ccccc1", "Potency": "inconclusive [inhibitor, single point]"}
{"molecule": "COc1ccc(Nc2ncc3c(n2)CC(c2ccc(C)cc2)CC3=O)cc1", "note": "(stereo unspecified)", "Potency": "active: 8.2 µM"}
{"molecule": "Cc1ccc(-n2nc3c(N4CCC(C(=O)NCc5ccc(C)o5)CC4)nnc(C)c3c2C)cc1", "Potency": "inconclusive [inhibitor, single point]"}
{"molecule": "O=C(Nc1ccc(Br)cc1)c1cc(-c2cccs2)nc2ccccc12", "Potency": "inconclusive [inhibitor, single point]"}
{"molecule": "Cc1ccc(Cn2c(C)c(C(=O)NCc3cccs3)sc2=O)cc1", "Potency": "inactive"}
{"molecule": "Fc1c(F)c(C(F)(F)F)c(F)c(F)c1N/N=C\\c1cccs1", "Potency": "active: 18.4 µM"}
{"molecule": "O=c1cc(N2CCN(c3ccccc3Cl)CC2)[nH]c(=O)n1Cc1ccc(F)cc1", "Potency": "active: 1.46 µM"}
